Source: PubChem BioAssay (Tox21)
Inconclusive means that the source gave no clear call. Such entries were picked first, then a sample of the others. For some assays here: A potency beside an inconclusive call is a rough fit, not a confirmed value. Calls of active or inactive are those of the source. Unless noted, the call rests on the fitted dose curve; in most records, active means well fitted curve in the direction sought with a large enough effect in the repeat runs; inconclusive means weak or mixed curves; inactive means no such curve, though single readings can be large; an effect the other way counts as inactive or inconclusive.

How the values were obtained:
[1] = qHTS assay to identify small molecule antagonists of the estrogen related receptor (ERR) signaling pathway from Tox21 library - cell viability counter screen (AID 1224834); further: nearly all actives have a fitted effect of over 30% in size
Method in brief: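 ERR reporter cells were plated 6 h before compound addition, then exposed to test compounds in DMSO for 17.5 h at 37 C. Viability was read as CellTiter-Fluor fluorescence after a 30-minute incubation at 37 C.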

[2] = target: Nuclear receptor subfamily 1 group I member 3 (Homo sapiens) (UniProt Q14994); assay: qHTS assay to identify small molecule agonists of the constitutive androstane receptor (CAR) signaling pathway (AID 1224839);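 further: HepG2 cells stably carrying human CAR and a CYP2B6 luciferase reporter; nearly all actives have a fitted effect of over 15% in size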
Method in brief: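 Luminescent ONE-Glo read-out after 24 hr, 37 C exposure of double-stable HepG2-CYP2B6-hCAR reporter cells to a 15-point compound series, in the presence of 0.75 uM PK11195 (final).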

[3] = qHTS assay to identify small molecule agonists of H2AX (AID 1224845; active means well fitted activation curve with a large enough effect in the signal ratio in the repeat runs, not every such curve was filed as active; inconclusive means weak or mixed curves; the % refers to the signal ratio); conditions: CHO-K1 phospho-H2AX Ser139 HTRF, 3 h; series mostly up to 154 µM
Method in brief: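 Phospho-H2AX Ser139 measured by HTRF (ex 320 nm; em 665 and 620 nm) after 24 hr antibody incubation. Compounds, 15 concentrations, 0.76% DMSO, were applied to CHO-K1 cells for 3hr at 37C before lysis.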

[4] = A CellTox Green Cytotoxicity Assay to monitor cytotoxicity in HEK293 cells - 8 hour (AID 1224884); further: nearly all actives have a fitted effect of over 35% in size
Method in brief: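 HEK293 cells premixed with CellTox Green dye were seeded at 600 cells/well and left 5 h at 37 C/5% CO2 before pin transfer of 23 nL compound in DMSO. Fluorescence from dye bound to dead-cell DNA was read during 40 h treatment.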

[5] = qHTS assay to identify small molecule antagonists of the sonic hedgehog signaling (Shh) pathway (AID 1259369; calls by dose curve; further: nearly all actives have a fitted effect of over 45% in size)
Method in brief: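 NIH/3T3-derived 3T3Gli1-Luc cells with stably integrated Gli1-Luc reporter were preincubated 4hr at 37 C, then given compounds in DMSO plus Shh conditioned medium and incubated 24hr. Firefly luciferase luminescence read after 30min reagent at room temperature.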

[6] = qHTS assay to identify small molecule agonists of the progesterone receptor (PR) signaling pathway - cell viability counter screen (AID 1346799; calls by dose curve; further: nearly all actives have a fitted effect of over 45% in size)
Method in brief: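 Cytotoxicity measured by CellTiter-Glo luminescence (30 min, RT) in the same wells as the PR beta-lactamase agonist read. Those HEK293T cells had 16 h compound treatment at 37 C in 2% charcoal-stripped FBS medium.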

[7] = target: Cytochrome P450 2C19 (Homo sapiens) (UniProt P33261); assay: Cytochrome P450 Family 2 Subfamily C Member 19 (CYP2C19) small molecule antagonists: luciferase reporter qHTS assay (AID 1671197); further: nearly all actives have a fitted effect of over 65% in size
Method in brief: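 Quantitative high-throughput screen of the Tox21 library using CYP2C19 with proluciferin substrate. Reaction: NADPH regeneration, 37C, 1 h, after 10 min compound preincubation at room temperature. Readout: luminescence.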

[8] = target: Cytochrome P450 1A2 (Homo sapiens) (UniProt P05177); assay: Cytochrome P450 Family 1 Subfamily A Member 2 (CYP1A2) small molecule antagonists: luciferase reporter qHTS assay (AID 1671199); further: potency means the concentration at half of the fitted maximal effect; nearly all actives have a fitted effect of over 50% in size
Method in brief: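 Human CYP1A2 activity measured with a P450-Glo proluciferin substrate; compounds in DMSO preincubated 10 min at room temperature with enzyme-substrate mix, then NADPH regeneration system added for 1 h. Luciferin detection reagent, 20 min, luminescence read.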

Measured: Potency
Tags describe the fitted curve by direction and shape.

Chain of UniProt Q14994 (Q14994 whole entry, looked up): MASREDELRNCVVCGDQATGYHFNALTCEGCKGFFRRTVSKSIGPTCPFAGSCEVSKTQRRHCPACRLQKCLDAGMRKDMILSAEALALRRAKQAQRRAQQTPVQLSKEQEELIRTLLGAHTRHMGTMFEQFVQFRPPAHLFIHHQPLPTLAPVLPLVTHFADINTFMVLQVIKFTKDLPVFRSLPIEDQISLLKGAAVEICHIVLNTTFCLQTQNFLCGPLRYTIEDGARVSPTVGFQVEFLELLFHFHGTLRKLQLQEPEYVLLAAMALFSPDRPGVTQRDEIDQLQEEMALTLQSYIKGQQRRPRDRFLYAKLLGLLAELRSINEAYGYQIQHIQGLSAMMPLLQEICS
Chain of UniProt P05177 (P05177 whole entry, looked up): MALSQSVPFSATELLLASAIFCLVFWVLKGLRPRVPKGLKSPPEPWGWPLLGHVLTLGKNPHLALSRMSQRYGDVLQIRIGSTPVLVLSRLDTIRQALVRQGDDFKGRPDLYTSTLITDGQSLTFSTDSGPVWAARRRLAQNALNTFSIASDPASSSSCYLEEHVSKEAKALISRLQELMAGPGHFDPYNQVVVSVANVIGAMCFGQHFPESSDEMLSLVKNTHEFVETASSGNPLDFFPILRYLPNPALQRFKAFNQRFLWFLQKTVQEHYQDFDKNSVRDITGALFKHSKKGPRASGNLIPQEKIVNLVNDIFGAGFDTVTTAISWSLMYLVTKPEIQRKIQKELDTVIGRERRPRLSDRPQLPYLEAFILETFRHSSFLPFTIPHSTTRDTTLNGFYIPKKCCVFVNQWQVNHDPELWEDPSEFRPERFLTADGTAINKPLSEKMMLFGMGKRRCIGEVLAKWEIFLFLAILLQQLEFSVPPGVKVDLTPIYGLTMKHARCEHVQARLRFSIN
Chain of UniProt P33261 (P33261 whole entry, looked up): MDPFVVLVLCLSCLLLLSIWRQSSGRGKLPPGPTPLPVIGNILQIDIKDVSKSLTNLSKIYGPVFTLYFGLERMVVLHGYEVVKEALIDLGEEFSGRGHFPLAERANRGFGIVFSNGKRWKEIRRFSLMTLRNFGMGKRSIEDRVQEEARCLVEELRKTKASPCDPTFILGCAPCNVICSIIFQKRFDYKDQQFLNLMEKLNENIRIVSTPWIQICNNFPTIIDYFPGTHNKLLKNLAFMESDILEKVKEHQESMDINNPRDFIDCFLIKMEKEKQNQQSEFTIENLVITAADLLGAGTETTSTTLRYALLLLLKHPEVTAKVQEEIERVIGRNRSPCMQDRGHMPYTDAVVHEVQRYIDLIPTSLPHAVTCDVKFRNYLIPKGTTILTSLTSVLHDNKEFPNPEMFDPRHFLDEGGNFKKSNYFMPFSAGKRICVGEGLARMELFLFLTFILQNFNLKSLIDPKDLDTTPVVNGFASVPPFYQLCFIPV

C=Cc1ccncc1
inactive: [1] | [2] | [3] | [4] | [5] | [6] | [7]
inconclusive: [8] 63.3 µM [inhibitor, partial curve]
